PubChem BioAssay AID1460 (National Center for Advancing Translational Sciences (NCATS), 2008)
Among all 270,000 compounds or so, about 5,800 (2.1%) were called active. This list was built around the results that the source calls inconclusive (neither active nor inactive); the mix of calls is not that of the screen. Calls follow the shape of the dose curve; as a rule, active = well fitted inhibition curve with a large enough effect; inconclusive = small, poorly fitted or top-dose-only effect; inactive = flat fitted curve, though single readings scatter. Potencies of inconclusive entries are doubtful fits and often do not repeat.
Also: nearly all actives have a fitted effect of over 55% in size.
Potency is read from the fitted curve at half-maximal effect; tags tell the direction and shape of the fitted curve.

What follows are compounds tested against Microtubule-associated protein tau (Homo sapiens) (UniProt P10636) (assay: qHTS for Inhibitors of Tau Fibril Formation, Thioflavin T Binding). Conditions: recombinant tau K18 P301L (four-repeat tau fragment), heparin-induced fibrillization, ThT fluorescence; series mostly up to 57.4 µM.
Chain of UniProt P10636 (P10636 whole entry, looked up, the tested form may be a part): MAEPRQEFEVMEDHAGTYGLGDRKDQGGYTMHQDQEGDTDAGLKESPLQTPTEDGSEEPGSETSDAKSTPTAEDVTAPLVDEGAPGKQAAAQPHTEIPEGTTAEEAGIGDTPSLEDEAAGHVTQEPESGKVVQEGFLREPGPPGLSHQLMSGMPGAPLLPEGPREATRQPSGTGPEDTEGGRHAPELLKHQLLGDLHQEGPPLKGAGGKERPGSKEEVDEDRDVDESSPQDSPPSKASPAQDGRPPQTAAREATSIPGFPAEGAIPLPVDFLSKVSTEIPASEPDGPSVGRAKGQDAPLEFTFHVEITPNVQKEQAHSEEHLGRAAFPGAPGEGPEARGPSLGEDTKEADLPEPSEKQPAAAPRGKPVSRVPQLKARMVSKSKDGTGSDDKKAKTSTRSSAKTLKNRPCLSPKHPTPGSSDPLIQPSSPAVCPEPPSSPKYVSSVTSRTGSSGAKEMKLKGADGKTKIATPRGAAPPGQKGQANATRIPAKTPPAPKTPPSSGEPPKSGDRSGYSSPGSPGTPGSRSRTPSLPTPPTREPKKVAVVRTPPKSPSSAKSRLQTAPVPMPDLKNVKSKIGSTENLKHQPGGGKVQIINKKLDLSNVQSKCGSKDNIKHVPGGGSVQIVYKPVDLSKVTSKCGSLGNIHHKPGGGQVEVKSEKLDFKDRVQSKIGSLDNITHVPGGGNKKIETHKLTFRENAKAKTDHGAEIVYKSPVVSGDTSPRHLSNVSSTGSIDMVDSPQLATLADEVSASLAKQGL
Method in brief: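 Heparin-induced fibrillization of the P301L-mutant K18 repeat-domain fragment of human tau was followed by ThT binding in quantitative high-throughput format.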
In the case of `N#CCCN1CCN(S(=O)(=O)c2ccc(S(=O)(=O)NC3CCCCC3)cc2)CC1`, the Potency is reported as inconclusive: 2.51 µM [inhibitor, partial curve]. With `Cc1nc(N)sc1-c1csc(NCc2ccccc2)n1` the Potency was active: 20 µM. `O=C(c1cccs1)N1CCC(N2CCN(c3ccccc3)CC2)CC1` was tested, and the Potency was inconclusive: 39.8 µM [inhibitor, single point]. In the case of `Cc1cc(Br)ccc1NC(=O)CSc1c2c(nc3ccccc13)CCC2`, the Potency is reported as inconclusive: 1.26 µM [inhibitor, partial curve]. With `Clc1ccccc1CSc1nnc(-c2ccccn2)n1Cc1ccco1` the Potency was “inactive”. For `Nc1ccc(N2CCN(C(=O)c3cccs3)CC2)cc1`, the Potency was inconclusive: 22.4 µM [inhibitor, partial curve]. For `CC(=O)N1C(=S)NC(=O)/C1=C1/C(=O)N(CC(=O)Nc2cccc(C)c2)c2ccccc21`, the Potency was inconclusive: 22.4 µM [inhibitor, partial curve]. With `CNc1ccccc1C(C)(C)c1cc(C)[nH]n1` the Potency was “inactive”. `CC[n+]1c(/C=C2\Sc3ccccc3N2C)ccc2cccc(C)c21` was tested, and the Potency was active: 20 µM. With `CC(=O)N1CCc2c(sc3c2c(=O)n(-c2ccccc2)c(=O)n3CC(=O)Nc2cc(C)cc(C)c2)C1` the Potency was inconclusive: 28.2 µM [activator, partial curve]. `CCCCN(CCCC)C1=Nc2ccccc2N/C1=C(/C#N)C(=O)OCC` was tested, and the Potency was inconclusive: 22.4 µM [inhibitor, partial curve, poor fit]. With `CCCNC(C)C(=O)Nc1ccccc1C` (configuration not stated) the Potency was inconclusive: 8.91 µM [inhibitor, single point]. In the case of `O=c1oc2ccccc2cc1-c1nc(-c2ccccc2)no1`, the Potency is reported as inconclusive: 3.16 µM [inhibitor, full curve]. In the case of `CCN(CC)CCCNc1nc(-c2ccccc2)nc2ccccc12`, the Potency is reported as “inactive”. In the case of `CSc1ccccc1-c1nnc(NC(=O)c2ccc3c(c2)OCCO3)o1`, the Potency is reported as inconclusive: 4.47 µM [inhibitor, single point]. In the case of `Cc1ccc(Oc2coc3cc(OC(=O)c4cccs4)ccc3c2=O)cc1`, the Potency is reported as “inactive”. For `Cc1[nH]c2ccccc2c1C(=O)CN1CCCCC1C` (configuration not stated), the Potency was “inactive”. In the case of `COC(=O)C1=C(C)N(c2ccc(Cl)cc2)/C(=C/c2ccc(O)cc2)C1=O`, the Potency is reported as inconclusive: 28.2 µM [inhibitor, single point]. With `NCCc1c(-c2ccccc2)n(-c2ccccc2)c2ccccc12` the Potency was inconclusive: 25.1 µM [inhibitor, single point]. With `COc1ccc(C(C(=O)NC2CCCC2)N(C(=O)c2ccoc2C)c2ccc(C)cc2)cc1` (configuration not stated) the Potency was inconclusive: 39.8 µM [inhibitor, single point]. With `CCC(Sc1ncnc2sc(C)c(C)c12)C(=O)OC` (configuration not stated) the Potency was “inactive”. With `COc1ccc(C/C(C)=N\NC(=O)c2cn(C)c3ccccc23)cc1OC` the Potency was inconclusive: 44.7 µM [inhibitor, single point]. For `CCOCCCNC(=S)NCCCNc1nc2cc3c(cc2cc1C#N)OCO3`, the Potency was inconclusive: 28.2 µM [inhibitor, partial curve, poor fit]. For `O=C1CC(=O)N(CCNc2ncc(C(F)(F)F)cc2Cl)C(=O)N1`, the Potency was inconclusive: 11.2 µM [inhibitor, partial curve]. For `CS(=O)(=O)Nc1ccccc1C(=O)NCc1ccccc1Cl`, the Potency was “inactive”. For `O=C(OCc1cc(=O)n2nc(-c3cccs3)sc2n1)c1ccccc1Cl`, the Potency was inconclusive: 3.16 µM [inhibitor, full curve]. For `CC1(c2ccc(OC(F)F)cc2)NC(=O)N(CC(=O)Nc2cccc(S(N)(=O)=O)c2)C1=O` (configuration not stated), the Potency was inconclusive: 0.0251 µM [inhibitor, full curve, poor fit]. With `CC(=O)C1=C(O)CC(C)(C)CC1=NCCc1nc2ccccc2[nH]1` the Potency was “inactive”. In the case of `CCOC(=O)c1c(NC(=O)C(=O)N/N=C(\C)c2ccc(OC)cc2)sc2c1CCCCC2`, the Potency is reported as inconclusive: 15.8 µM [inhibitor, partial curve]. `NC(=O)C1=C[C@@H](c2csc3ccccc23)C[C@@H](OCc2ccc(CO)cc2)O1` was tested, and the Potency was inconclusive: 20 µM [inhibitor, single point]. With `Cc1ccc(NS(=O)(=O)c2ccc(NC(=O)CN(c3cc([N+](=O)[O-])ccc3C)S(C)(=O)=O)cc2)c(C)c1` the Potency was inconclusive: 7.94 µM [inhibitor, full curve, poor fit]. With `N/C(=N\OC(=O)c1ccco1)c1ccccc1` the Potency was “inactive”. `C/C(=N\N=c1/scc(C)n1Cc1ccco1)c1cccc([N+](=O)[O-])c1` was tested, and the Potency was inconclusive: 8.91 µM [inhibitor, partial curve]. In the case of `Cc1cccc2nc(-c3ccccn3)c(Nc3ccc(F)cc3)n12`, the Potency is reported as inconclusive: 14.1 µM [inhibitor, partial curve, poor fit]. For `O=C(/C=C/c1cccnc1)c1ccc(O)cc1`, the Potency was inconclusive: 20 µM [inhibitor, partial curve]. In the case of `CCOC(=O)c1ccc(NC(=O)CCc2ccc(CC)o2)cc1`, the Potency is reported as inconclusive: 17.8 µM [inhibitor, single point]. `CC(CNC(=O)c1cnn(-c2ccc(F)cc2)c1-n1cccc1)c1ccccc1` (configuration not stated) was tested, and the Potency was inconclusive: 22.4 µM [inhibitor, single point]. For `CC1(OC(=O)CCc2ccccc2)C(=O)C=C2C=C(c3ccc(C#N)cc3)N(C(CO)CO)C=C2C1=O` (configuration not stated), the Potency was inconclusive: 7.94 µM [inhibitor, partial curve]. With `Cc1ccc2nc(SCc3nc(-c4ccc(Cl)cc4)no3)[nH]c2c1` the Potency was inconclusive: 5.62 µM [inhibitor, full curve, poor fit]. For `O=C(NCCCN1CCOCC1)C(=O)N/N=C/c1cccc2ccccc12`, the Potency was inconclusive: 0.1 µM [inhibitor, full curve, poor fit]. For `O=C(CSc1nc(=O)n(CCN2CCOCC2)c2c1CCC2)Nc1ccc(Cl)c(Cl)c1`, the Potency was “inactive”. With `Cc1cc(C)c(N=Cc2c(O)n(-c3nccs3)c(=O)c3ccccc23)c(C)c1` the Potency was inconclusive: 8.91 µM [inhibitor, partial curve]. `CC(=O)N1CCN(c2ccccc2NC(=O)COc2cc(C)ccc2C(C)C)CC1` was tested, and the Potency was “inactive”. For `CNS(=O)(=O)c1cn(CC(=O)N2CCN(c3ccc(C(C)=O)cc3)CC2)cc1S(=O)(=O)NC`, the Potency was “inactive”. `COc1ccc2cc(CCNC(=O)c3ccc4c(c3)OCO4)c(=O)[nH]c2c1` was tested, and the Potency was inconclusive: 5.62 µM [inhibitor, full curve]. `CCOC(=O)c1c(-c2ccc(C)o2)csc1NC(=S)NC(=O)N(C)C` was tested, and the Potency was inconclusive: 28.2 µM [inhibitor, partial curve]. `O=C(c1cccc(F)c1)N1CCN(c2ccc([N+](=O)[O-])c(N3CCCCC3)c2)CC1` was tested, and the Potency was inconclusive: 22.4 µM [inhibitor, partial curve]. In the case of `CCc1cc2c(cc3c(=O)n(CCCC(=O)NCc4cccc(Br)c4)ncn32)s1`, the Potency is reported as inconclusive: 1.26 µM [inhibitor, full curve]. `CCOC(=O)C(C)(C)N(Cc1ccc(Cl)cc1)S(=O)(=O)c1ccc(Cl)c([N+](=O)[O-])c1` was tested, and the Potency was inconclusive: 17.8 µM [inhibitor, single point]. For `O=C(Nc1sc2c(c1C(=O)O)CCC2)c1ccco1`, the Potency was inconclusive: 31.6 µM [inhibitor, partial curve]. For `Cc1c(CCNC(=O)c2ccc(C(C)(C)C)cc2)sc2nc(-c3ccc(F)cc3)nn12`, the Potency was inconclusive: 3.16 µM [inhibitor, partial curve]. With `CCC(=O)Oc1ccc(C(=O)Nc2ccc3c(c2)OCO3)cc1` the Potency was inconclusive: 3.55 µM [inhibitor, full curve]. In the case of `COc1cc2c(cc1OC)n(CC(=O)c1cc(C)ccc1C)c(=O)n1nc(CCn3nc(C)cc3C)nc21`, the Potency is reported as “inactive”. `COc1cccc(/C=C2\N=C(C3CCCCC3)OC2=O)c1OC` was tested, and the Potency was inconclusive: 28.2 µM [inhibitor, single point]. For `CC(=O)N1c2ccc(S(=O)(=O)Nc3ccc(C)c(Cl)c3)cc2CC1C` (configuration not stated), the Potency was “inactive”. In the case of `Cc1ccc(N2C(=O)CSCC2=O)cc1`, the Potency is reported as “inactive”. For `CC(=O)NC(c1cccs1)c1cc([N+](=O)[O-])c2cccnc2c1O` (configuration not stated), the Potency was inconclusive: 14.1 µM [inhibitor, partial curve]. In the case of `CCCCC12CN3CC(C)(CN(C1)C3c1c[nH]c3ccccc13)C2=O` (configuration not stated), the Potency is reported as “inactive”. In the case of `Cc1ccc(OCCSc2nnc(-c3cccs3)o2)cc1`, the Potency is reported as inconclusive: 6.31 µM [inhibitor, partial curve, poor fit]. `COc1cc2c(C#N)c(N3CCCC3)nc(N)c2c(N)n1` was tested, and the Potency was inconclusive: 25.1 µM [inhibitor, partial curve]. In the case of `CC(C)=NNc1nc(-c2ccc([N+](=O)[O-])cc2)cs1`, the Potency is reported as active: 8.91 µM. In the case of `COC(=O)C1(Cc2ccccc2)C=C2C(=C(C(C)C)C(=O)C2C)CN1` (configuration not stated), the Potency is reported as inconclusive: 39.8 µM [inhibitor, single point]. With `CCOC(=O)c1c(CC(C)C)csc1NC(=O)CCl` the Potency was inconclusive: 39.8 µM [inhibitor, partial curve, poor fit]. With `Cc1ccc(C(=O)COC(=O)CCC(=O)Nc2ccc(Oc3ccccc3)cc2)cc1` the Potency was “inactive”. `COc1ccc(Nc2nc(-c3ccc(OC)cc3)cs2)cc1` was tested, and the Potency was inconclusive: 2.51 µM [inhibitor, full curve]. In the case of `COc1ccc(CCNC(=O)CSc2cn(CCNC(=O)c3c(F)cccc3F)c3ccccc23)cc1OC`, the Potency is reported as inconclusive: 25.1 µM [inhibitor, partial curve, poor fit]. With `CN(C)CCCN(C(=O)c1ccc2c(c1)CCCC2)c1nc2ccc(Cl)cc2s1` the Potency was inconclusive: 17.8 µM [inhibitor, single point].
